About 64,000 (15%) of roughly 420,000 compounds were called active. The shares of active, inactive and inconclusive entries below differ from those in the screen. Calls follow the shape of the dose curve; as a rule, active = well fitted inhibition curve with a large enough effect; inconclusive = small, poorly fitted or top-dose-only effect; inactive = flat fitted curve, though single readings scatter. No potency is given beside an inconclusive call; the fits are too rough.
Test: qHTS for Inhibitors of human tyrosyl-DNA phosphodiesterase 1 (TDP1): qHTS in cells in absence of CPT; also: nearly all actives have a fitted effect of over 55% in size
Conditions: DT40 Tdp1-/- hTDP1 cells, no CPT, ATP luminescence, 48 h; activity change, negative = growth inhibition: at 46.2 µM (top of the series)
Procedure, shortened: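 Stably hTDP1-transfected Tdp1-null chicken DT40 cells were treated with library compounds minus camptothecin and grown for at least 48 hr at 37 °C, after which cellular ATP was quantified by luminescence.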
% is scaled to controls: 0 for no effect and ±100 for the full control effect; potency is read from the fitted curve at half-maximal effect; tags tell the direction and shape of the fitted curve.

SMILES | Potency | activity change, negative = growth inhibition
CCC(C)(C)C1CCc2c(sc(NC(=O)c3cccs3)c2C(N)=O)C1 (centres undefined) | inconclusive [inhibitor, partial curve] | 
Cc1cc(C)c(C)c(OCC(=O)N2CCN(c3ccccn3)CC2)c1 | inconclusive [inhibitor, single point] | 
CCOc1ccc(C2C(C(=O)Nc3ccccc3OC)=C(C)Nc3c(C(=O)Nc4cccc(C)c4)cnn32)cc1 (centres undefined) | inconclusive [inhibitor, single point] | 
CC(C)Oc1cc(F)ccc1-c1cc(C(=O)NCCc2ccncc2)[nH]n1 | inconclusive [inhibitor, single point] | 
CN(C)CCNc1ncnc2ccccc12 |  | inactive: -11.6%
C=CCn1c(=N)n(CC(=O)c2ccc(Br)cc2)c2ccccc21 | inconclusive [inhibitor, partial curve, poor fit] | 
O=C(c1ccc(S(=O)(=O)N2CCc3ccccc3C2)cc1)N1CCCCC1 | active: 25.9 µM | 
NC(=O)COC(=O)c1ccc(NS(=O)(=O)c2ccc3c(c2)OCCO3)cc1 | inconclusive [inhibitor, partial curve, poor fit] | 
COc1ccc(-n2c(=O)c3ccc(C(=O)NCc4ccc(C)cc4)cc3n(Cc3cccc(Cl)c3)c2=O)cc1 | inconclusive [inhibitor, partial curve] | 
COc1ccc(C2CC(O)(c3ccccc3)Oc3cc(OC)c(OC)c(OC)c32)cc1 (centres undefined) | inconclusive [inhibitor, single point] | 
CCOC(=O)C(=O)N(C)c1c(CC)nc2c(OCc3cccc(Cl)c3)cccn12 | inconclusive [inhibitor, partial curve] | 
CCN(Cc1ccncc1)C(=O)c1cc(Br)cc(Br)c1O |  | inactive: 0.432%
COC(=O)c1ccccc1N=Nc1c(C)[nH][nH]c1=O | inconclusive [inhibitor, single point] | 
CC(=O)CN1C(=O)NC(c2ccccc2)(c2ccccc2)C1=O | inconclusive [inhibitor, partial curve, poor fit] | 
CCOC(=O)N1CCN(c2ccc(C(F)(F)F)cn2)CC1 |  | inactive: -29.5%
CC1(c2ccc(OC(F)F)cc2)NC(=O)N(CC(=O)Nc2ccc(F)cc2)C1=O (centres undefined) | inconclusive [inhibitor, single point] | 
Cc1ccc(N(C)S(=O)(=O)c2c[nH]c3ccc([N+](=O)[O-])cc23)cc1 |  | inactive: -3.54%
OC1(c2cccc(C(F)(F)F)c2)CCN(CCN2CCCCC2)CC1 | inconclusive [inhibitor, single point] | 
CCOC(=O)N1CCC(NC(=O)c2ccc(N3CCC4(CC3)OCCO4)c([N+](=O)[O-])c2)CC1 | inconclusive [inhibitor, single point] | 
CC1CCCC(NC(=O)CSc2ncnc3ccccc23)C1C (centres undefined) | inconclusive [inhibitor, single point] | 
CCOC(=O)c1c(C)[nH]c(C(=O)OCC(=O)N(CC(C)C)c2c(N)n(Cc3ccccc3)c(=O)[nH]c2=O)c1C | inconclusive [inhibitor, single point] | 
COc1ccc(C2NC(=S)NC(C)=C2C(=O)Nc2ccccn2)cc1 (centres undefined) | inconclusive [inhibitor, single point] | 

SMILES | Potency | activity change, negative = growth inhibition
CC(=O)NCC1CCCN(c2nc3nonc3nc2N(C)Cc2ccccc2)C1 (centres undefined) | inconclusive [inhibitor, single point] | 
CCOC(=O)c1oc2ccccc2c1CSc1nnnn1-c1ccccc1 | inconclusive [inhibitor, single point] | 
CC1CCCCN1C(=O)CN1C(=O)NC2(CCCCC2C)C1=O (centres undefined) |  | inactive: -9.75%
COc1ccc(CN(Cc2ccco2)C(=O)c2ccccc2F)cc1 | active: 16.4 µM | 
O=C1C(=O)N(C/C=C/c2ccccc2)c2ccccc21 | active: 0.58 µM | 
COc1ccc(NC(=O)COC(=O)CC2CC3CCC2C3)c([N+](=O)[O-])c1 (centres undefined) | inconclusive [inhibitor, single point] | 
Cc1ccc(C(=O)NNC(=O)CCN2C(=O)C3CCCCC3C2=O)cc1 (centres undefined) |  | inactive: -1.38%
Oc1ccccc1CN1CCN(C(O)(c2ccccc2)c2ccccc2)CC1 | inconclusive [inhibitor, single point] | 
Cc1cc(C)c2c(N)c(S(=O)(=O)Cc3ccccc3)sc2n1 | inconclusive [inhibitor, single point] | 
CCOC(=O)c1cccc(NC(=O)CSc2nnc(C3CCCCC3)n2CC)c1 | inconclusive [inhibitor, full curve] | 
CCc1cc2c(N3CCCCC3)ncnc2s1 | inconclusive [inhibitor, single point] | 
Cc1cccc(C)c1NS(=O)(=O)c1ccc2c(c1)[C@H]1C=CC[C@H]1[C@@H](c1ccc(Cl)cc1)N2 | active: 13 µM | 
Cc1cccc(C(=O)NCC(=O)NCC2COc3ccccc3O2)c1 (centres undefined) |  | inactive: -2.4%
CCn1c(CC2C(=O)Nc3ccccc32)nc2ccccc2c1=O (centres undefined) | inconclusive [inhibitor, single point] | 
Cc1c(C)n(Cc2ccccc2)c2ccc(C(=O)NCc3ccc(OC(C)C)cc3)cc12 | active: 11.6 µM | 
CCOC(=O)[C@]12CCC=C1N(CCC1=CCCCC1)C(=O)[C@H](CC(=O)NCCc1ccccc1OC)C2 | inconclusive [inhibitor, single point] | 
COCCCNC(=S)NNC(=O)c1ccc2c(c1)OCO2 |  | inactive: 10.1%
CCN(CC)CCCNC(=O)C1CCN(S(C)(=O)=O)CC1 |  | inactive: -17.3%
CC(C)(C)NC(=O)CSCc1c(Cl)cccc1Cl | inconclusive [inhibitor, single point] | 
COc1ccccc1/C=N\Nc1ccccc1[N+](=O)[O-] |  | inactive: -17.6%
CC(=O)c1cn(CC(=O)NCc2ccco2)c2ccccc12 | inconclusive [inhibitor, partial curve] | 
COc1ccc(OC)c(NS(=O)(=O)c2c(C(=O)N3CCCCCC3)c(C)n(C)c2C)c1 |  | inactive: 9.24%
